Patent publication US20090258363

Key:
[1] = molecular target: 5-10 ZFP/FokI fusion protein (wild-type FokI cleavage half-domain)
[2] = molecular target: 5-10 (E490K) mutant ZFP/FokI fusion protein
[3] = molecular target: 5-9D zinc finger/FokI fusion protein, wild-type FokI cleavage half-domain, P14870
[4] = molecular target: 5-9D zinc finger/FokI fusion protein, Q486E cleavage half-domain, P14870

B1: 5-8 ZFP/FokI fusion protein (wild-type FokI cleavage half-domain) (protein)
chain: MAPKKKRKVGIHGVPAAMAERPFQCRICMRNFSRSDNLSEHIRTHTGEKPFACDICGRKFARNAHRINHTKIHTGSQKPFQCRICMRNFSRSDTLSEHIRTHTGEKPFACDICGRKFAARSTRTTHTKIHLRQKDAARGSQLVKSELEEKKSELRHKLKYVPHEYIELIEIARNSTQDRILEMKVMEFFMKVYGYRGKHLGGSRKPDGAIYTVGSPIDYGVIVDTKAYSGGYNLPIGQADEMQRYVEENQTRNKHINPNEWWKVYPSSVTEFKFLFVSGHFKGNYKAQLTRLNHITNCNGAVLSVEELLIGGEMIKAGTLTLEEVRRKFNNGEINF
**Q.** For B1, which “DNA cleavage (in vitro, labeled ~400 bp substrate)” value [1] is on record?
**A.** Specific

**Q.** What about the “DNA cleavage (in vitro, labeled ~400 bp substrate)” value [2] of the same protein?
**A.** Specific

B2: 5-8G zinc finger/FokI fusion protein, wild-type FokI cleavage half-domain (protein)
chain: MAERPFQCRICMRNFSRSDNLSVHIRTHTGEKPFACDICGRKFARNAHRINHTKIHTGSQKPFQCRICMRNFSRSDTLSEHIRTHTGEKPFACDICGRKFAARSTRTNHTKIHLRGSQLVKSELEEKKSELRHKLKYVPHEYIELIEIARNSTQDRILEMKVMEFFMKVYGYRGKHLGGSRKPDGAIYTVGSPIDYGVIVDTKAYSGGYNLPIGQADEMQRYVEENQTRNKHINPNEWWKVYPSSVTEFKFLFVSGHFKGNYKAQLTRLNHITNCNGAVLSVEELLIGGEMIKAGTLTLEEVRRKFNNGEINF
**Q.** With B2 as the protein, how does the % GC (fraction of amplification product cleaved by BsrBI), 1 ug of each plasmid [3] read?
**A.** 2.6%

**Q.** What about the % GC (fraction of amplification product cleaved by BsrBI), 2.5 ug of each plasmid [3] of the same protein?
**A.** < 1%

**Q.** And the % GC (fraction of amplification product cleaved by BsrBI), 5 ug of each plasmid [3]?
**A.** 1.5%

**Q.** What about the % GC (fraction of amplification product cleaved by BsrBI), 7.5 ug of each plasmid [3] of the same protein?
**A.** < 1%

B3: 5-8G zinc finger/FokI fusion protein, Q486E cleavage half-domain (protein)
chain: MAERPFQCRICMRNFSRSDNLSVHIRTHTGEKPFACDICGRKFARNAHRINHTKIHTGSQKPFQCRICMRNFSRSDTLSEHIRTHTGEKPFACDICGRKFAARSTRTNHTKIHLRGSQLVKSELEEKKSELRHKLKYVPHEYIELIEIARNSTQDRILEMKVMEFFMKVYGYRGKHLGGSRKPDGAIYTVGSPIDYGVIVDTKAYSGGYNLPIGQADEMERYVEENQTRNKHINPNEWWKVYPSSVTEFKFLFVSGHFKGNYKAQLTRLNHITNCNGAVLSVEELLIGGEMIKAGTLTLEEVRRKFNNGEINF
**Q.** Which % GC (fraction of amplification product cleaved by BsrBI), 5 ug of each plasmid [4] does the source give for B3 here?
**A.** 2.3%

B4: 5-10 ZFP/FokI fusion protein (wild-type FokI cleavage half-domain) (protein)
chain: MAPKKKRKVGIHGVPAAMAERPFQCRICMRNFSRSDSLSRHIRTHTGEKPFACDICGRKFADSSNRKTHTKIHTGGGGSQKPFQCRICMRNFSRSDSLSVHIRTHTGEKPFACDICGRKFADRSNRITHTKIHLRQKDAARGSQLVKSELEEKKSELRHKLKYVPHEYIELIEIARNSTQDRILEMKVMEFFMKVYGYRGKHLGGSRKPDGAIYTVGSPIDYGVIVDTKAYSGGYNLPIGQADEMQRYVEENQTRNKHINPNEWWKVYPSSVTEFKFLFVSGHFKGNYKAQLTRLNHITNCNGAVLSVEELLIGGEMIKAGTLTLEEVRRKFNNGEINF
**Q.** Which “DNA cleavage (in vitro, labeled ~400 bp substrate), 5-8 not present” value does the source give for B4 here?
**A.** Non-specific
